In PubChem BioAssay (NCI):
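Protocol summary: plate cells (96-well), add compound at 5 concentrations, incubate 48 h, interpolate endpoints linearly. GI50: concentration for 50% inhibition of growth. TGI: total growth inhibition.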

What follows are compounds tested on NCI-H322M lung (assay: NCI tumour cell line growth inhibition, 48 h).
In the case of CN1CCN(c2n[nH]c(=O)c3c2nnn3C2CCCCC2)CC1, the TGI was > 100 µM. In the case of N=c1oc2cc(O)ccc2cc1C(=O)Nc1cccc2ccccc12, the TGI was 30.6 µM. In the case of CC/C(=C(/c1ccc(OCCN(C)C)cc1)c1ccc(OC(=O)CCCCCCCCC(=O)c2c(C)[nH]c(/C=C3\N=C(c4ccc[nH]4)C=C3OC)c2C)cc1)c1ccccc1, the GI50 was > 100 µM and the TGI was > 100 µM. With Nc1c(C(=O)Nc2cccc(C(F)(F)F)c2)sc2nc3c(cc12)CCCCCC3 the GI50 was 4.96 µM and the TGI was 28.6 µM. With Cc1cccc(-c2nc(-c3cnccn3)n(Cc3ccccc3)n2)c1 the TGI was > 100 µM. Work on Cn1cnc(C(=N)[Se])c1N yielded a TGI of 2.14 µM. CC(C)C(CCOS(=O)(=O)O)CCC(C)[C@H]1[C@@H](O)C(O)C2[C@]3(O)C[C@@H](O)C4(O)C[C@@H](O)CC[C@]4(C)C3CC[C@@]21C (some centres undefined) was tested, and the TGI was > 100 µM. In the case of O=C1N[C@H](C(=O)O)[C@@H](c2ccc(OCc3ccccc3)cc2)O1, the TGI was > 100 µM. In the case of O=C(CC(=O)c1cccc([N+](=O)[O-])c1)C(=O)Nc1ccccc1, the TGI was > 100 µM. C[C@@H]1CC[C@@]2(C)[C@H](C)/C(=C\COC(=O)/C=C/c3ccc(O)c(O)c3)CC[C@@]12C showed a TGI of 26.9 µM. COC(=O)Cc1c(C2C(CC(=O)OC)c3ccccc3N2C2OC(CO)C(O)C(O)C2O)[nH]c2ccccc12 (centres undefined) was tested, and the TGI was > 100 µM. With CC(C)CC1N=C(OCc2ccccc2)OC1=O (centres undefined) the TGI was > 100 µM. CC[C@@]1(O)C(=O)OCc2c1cc1n(c2=O)Cc2c-1nc1cc(F)c(C)c3c1c2[C@@H](NC(=O)CO)CC3 was tested, and the GI50 was 0.0784 µM and the TGI was > 27.2 µM. O=c1/c(=C\c2ccc(Br)cc2)sc2n1C(c1ccc(Br)cc1)C1=C(N=2)c2ccc3ccccc3c2OCC1 (centres undefined) was tested, and the GI50 was 1.99 µM and the TGI was > 100 µM. For Cn1c(=O)c2c(=O)cc(N)[nH]c2n(C)c1=O, the TGI was > 100 µM. Compound CC[As](CC)SCC1OC(OC(C)=O)C(OC(C)=O)C(OC(C)=O)C1OC(C)=O (centres undefined) has a TGI of 33.3 µM. For COc1ccc2nc3ccccc3c(NCCN(CCCl)CCCl)c2c1, the TGI was 7.73 µM. With O=C1CN(c2ccccc2)C(=O)CN1NCNN1CC(=O)N(c2ccccc2)CC1=O the TGI was > 100 µM. With CC(C)(C)CI the TGI was > 100 µM. Work on CCOC(=O)c1cc([N+](=O)[O-])c(Sc2ncnc3nc[nH]c23)c([N+](=O)[O-])c1 yielded a TGI of 20.1 µM.
